From article PMC4336329 (PLoS ONE, 2015)
Hit rate of the full screen: of about 310,000 compounds, about 14,000 (4.5%) showed an effect of 50% or more. The effect is printed as a negative number. The list shows a part of the results.
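Also: peak tail current of the secondary pulse compared with the same well before compound.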

The compounds below were run against human ether-à-go-go-related gene (hERG) potassium channel (human, UniProt Q12809) (assay: primary screen, population patch clamp on CHO cells stably expressing hERG).
Sequence of human ether-à-go-go-related gene (hERG) potassium channel (Q12809 whole entry, looked up): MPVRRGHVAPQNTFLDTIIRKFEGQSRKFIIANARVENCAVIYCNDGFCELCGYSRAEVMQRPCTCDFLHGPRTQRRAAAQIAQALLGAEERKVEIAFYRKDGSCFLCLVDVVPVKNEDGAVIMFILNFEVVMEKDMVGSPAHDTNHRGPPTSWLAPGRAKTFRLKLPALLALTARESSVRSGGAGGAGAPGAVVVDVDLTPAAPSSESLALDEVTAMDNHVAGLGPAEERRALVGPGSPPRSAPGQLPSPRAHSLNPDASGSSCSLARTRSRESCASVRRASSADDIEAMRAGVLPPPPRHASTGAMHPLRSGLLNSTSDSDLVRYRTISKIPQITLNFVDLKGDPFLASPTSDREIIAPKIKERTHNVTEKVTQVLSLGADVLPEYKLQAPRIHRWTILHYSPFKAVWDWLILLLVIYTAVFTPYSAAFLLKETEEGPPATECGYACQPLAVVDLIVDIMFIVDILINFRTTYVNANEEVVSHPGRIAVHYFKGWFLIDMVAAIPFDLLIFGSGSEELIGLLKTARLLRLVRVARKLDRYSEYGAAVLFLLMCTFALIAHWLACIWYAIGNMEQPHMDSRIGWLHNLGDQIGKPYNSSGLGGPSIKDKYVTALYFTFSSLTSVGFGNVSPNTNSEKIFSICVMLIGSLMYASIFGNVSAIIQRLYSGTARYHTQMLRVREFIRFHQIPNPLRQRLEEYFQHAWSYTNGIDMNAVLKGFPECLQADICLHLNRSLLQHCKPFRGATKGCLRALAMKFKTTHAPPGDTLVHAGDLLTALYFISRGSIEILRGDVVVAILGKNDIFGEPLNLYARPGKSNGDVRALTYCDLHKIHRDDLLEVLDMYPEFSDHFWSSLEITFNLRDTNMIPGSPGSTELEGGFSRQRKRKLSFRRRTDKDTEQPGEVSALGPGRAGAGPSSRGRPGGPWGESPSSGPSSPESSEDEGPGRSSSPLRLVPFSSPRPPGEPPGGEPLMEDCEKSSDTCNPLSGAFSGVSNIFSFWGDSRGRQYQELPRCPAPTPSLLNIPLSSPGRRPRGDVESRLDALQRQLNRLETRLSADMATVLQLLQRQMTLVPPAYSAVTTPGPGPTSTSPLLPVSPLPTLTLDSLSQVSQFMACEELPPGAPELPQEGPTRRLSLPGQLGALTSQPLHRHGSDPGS
For `O=C(NCc1ccco1)c1ccc(Cn2c(=S)[nH]c3ccccc3c2=O)cc1`, the “hERG current change (%, negative = inhibition) at 10uM” value was 40.1%.
In the case of `O=C(NNC(=O)C(Cl)Cl)c1cnn(-c2ccccc2)c1C(F)(F)F`, the “hERG current change (%, negative = inhibition) at 10uM” value is reported as 14.2%.
`Brc1c(CSc2nc3ccccc3s2)nc2ncccn12` was tested, and the “hERG current change (%, negative = inhibition) at 10uM” value was -69.7%.
`O=C(CSC1=NNC(c2ccccn2)S1)Nc1ccccc1` (stereo not drawn) was tested, and the “hERG current change (%, negative = inhibition) at 10uM” value was 18.2%.
`Cc1nc2ccccc2c(=O)n1/N=C/c1cn[nH]c1-c1ccccc1` was tested, and the “hERG current change (%, negative = inhibition) at 10uM” value was -10.7%.
`CC1(C)CC(=O)C=C(N2CCCC2)C1` was tested, and the “hERG current change (%, negative = inhibition) at 10uM” value was 17.5%.
For `O=C(COC(=O)CC1CC2CCC1C2)Nc1c(F)cccc1F` (stereo not drawn), the “hERG current change (%, negative = inhibition) at 10uM” value was 14.3%.
With `O=C(NC1CC2CCCC(C1)N2Cc1cccs1)N1CCOCC1` (stereo not drawn) the “hERG current change (%, negative = inhibition) at 10uM” value was -6.2%.
In the case of `Cn1c(N)c(S(=O)(=O)N2CCN(c3cccc(Cl)c3)CC2)c(=O)n(C)c1=O`, the “hERG current change (%, negative = inhibition) at 10uM” value is reported as -0.261%.
In the case of `COc1ccc2c(c1OC)C(C1c3c(cc4c(c3OC)OCO4)CCN1C)OC2=O` (stereo not drawn), the “hERG current change (%, negative = inhibition) at 10uM” value is reported as -7.14%.
`COc1ccccc1NC(CC(=O)c1ccccc1)C(=O)OCC(=O)c1ccc(C)c(C)c1` (stereo not drawn) was tested, and the “hERG current change (%, negative = inhibition) at 10uM” value was -10.9%.
With `O=C(Nc1ccc(N2CCN(C(=O)c3ccccc3)CC2)cc1)c1cc2ccccc2o1` the “hERG current change (%, negative = inhibition) at 10uM” value was -17.3%.
In the case of `CCCc1ccc(C#N)c(SC2CC(=O)N(c3ccc(OC)cc3)C2=O)n1` (stereo not drawn), the “hERG current change (%, negative = inhibition) at 10uM” value is reported as 21.8%.
In the case of `FC(F)(F)c1ccc(-n2cnc3ccccc32)nc1`, the “hERG current change (%, negative = inhibition) at 10uM” value is reported as -10.6%.
For `CCOC(=O)c1nc(Nc2ccc(OC)cc2)c2ccccc2n1`, the “hERG current change (%, negative = inhibition) at 10uM” value was 2.45%.
For `COc1cccc(/C=C2/Sc3ccc(C(=O)NCCN4CCCCCC4)cc3NC2=O)c1`, the “hERG current change (%, negative = inhibition) at 10uM” value was -47.3%.
In the case of `CC(=O)Nc1ccc(S(=O)(=O)Nc2nc3ccccc3nc2-n2ccc(=NC(=O)c3ccccc3)cc2)cc1`, the “hERG current change (%, negative = inhibition) at 10uM” value is reported as 15.1%.
`O=C(CSc1nnc(CNC(=O)c2ccco2)o1)Nc1ccccc1F` was tested, and the “hERG current change (%, negative = inhibition) at 10uM” value was 17%.
In the case of `Cc1cc(C(=O)N/N=C/c2ccco2)n[nH]1`, the “hERG current change (%, negative = inhibition) at 10uM” value is reported as 31.6%.
With `COc1cc(S(=O)(=O)N2CCCCC2)ccc1NC(=O)c1ccncc1` the “hERG current change (%, negative = inhibition) at 10uM” value was -30.8%.
In the case of `CN(C)S(=O)(=O)c1ccc(C(=O)Nc2nc(-c3cc4ccccc4o3)cs2)cc1`, the “hERG current change (%, negative = inhibition) at 10uM” value is reported as -3.13%.
`COc1cc(OC)cc(-c2nnc(SCC(=O)N3c4ccccc4Sc4ccccc43)o2)c1` was tested, and the “hERG current change (%, negative = inhibition) at 10uM” value was 15.3%.
For `COc1ccccc1N1CCN(S(=O)(=O)c2ccc(-n3cnnn3)c(C)c2)CC1`, the “hERG current change (%, negative = inhibition) at 10uM” value was -13.7%.
In the case of `CC(C)Cn1c(SCC(=O)N2CCCc3ccccc32)nc2ccccc2c1=O`, the “hERG current change (%, negative = inhibition) at 10uM” value is reported as 4.73%.
With `COC(=O)c1c(C)noc1-c1cc(C)on1` the “hERG current change (%, negative = inhibition) at 10uM” value was 6.11%.
For `CCOc1ccc(CCNC(=O)COC(=O)/C=C/c2ccc(C)o2)cc1OCC`, the “hERG current change (%, negative = inhibition) at 10uM” value was 1.3%.
In the case of `CCC1Oc2ccc(C)cc2N(CC(=O)NCCCN2CCOCC2)C1=O` (stereo not drawn), the “hERG current change (%, negative = inhibition) at 10uM” value is reported as 6.01%.
For `O=C1CC(SCCc2nc3ccccc3[nH]2)C(=O)N1c1ccc(F)cc1` (stereo not drawn), the “hERG current change (%, negative = inhibition) at 10uM” value was -12.5%.
With `CN(C(=O)COC(=O)CNC(=O)C12CC3CC(CC(C3)C1)C2)C1CCS(=O)(=O)C1` (stereo not drawn) the “hERG current change (%, negative = inhibition) at 10uM” value was 10.9%.
With `O=C(COC(=O)/C=C/c1ccc(S(=O)(=O)N2CCOCC2)cc1)NCc1ccc(F)cc1` the “hERG current change (%, negative = inhibition) at 10uM” value was -18.3%.
`CCOc1cc(NC(=O)C2CC2)c(OCC)cc1NC(=O)c1ccccc1OCC` was tested, and the “hERG current change (%, negative = inhibition) at 10uM” value was -20%.
For `Cc1cc(=O)[nH]c(SCc2cn3ccccc3n2)n1`, the “hERG current change (%, negative = inhibition) at 10uM” value was 16.4%.
With `CCOc1ccc(CC(=O)NNC(=S)NC)cc1Br` the “hERG current change (%, negative = inhibition) at 10uM” value was 28%.
`CCOC(=O)C1CCN(C(=O)COc2ccc(S(=O)(=O)NC(C)C)cc2)CC1` was tested, and the “hERG current change (%, negative = inhibition) at 10uM” value was -10.3%.
For `COC(=O)c1ccc(NC(=O)COC(=O)C2CC(=O)N(Cc3ccccc3)C2)cc1` (stereo not drawn), the “hERG current change (%, negative = inhibition) at 10uM” value was -11.7%.
`C=CCSc1nc2ccccc2[nH]1` was tested, and the “hERG current change (%, negative = inhibition) at 10uM” value was 25%.
With `COc1ccc(OC)c(NC(=O)Cc2coc3ccc(C)cc23)c1` the “hERG current change (%, negative = inhibition) at 10uM” value was -25%.
For `c1csc(Cc2nc(-c3ccc(-n4cccc4)cc3)no2)c1`, the “hERG current change (%, negative = inhibition) at 10uM” value was 10.5%.
`Cc1nc2ccc([N+](=O)[O-])cc2[nH]1` was tested, and the “hERG current change (%, negative = inhibition) at 10uM” value was 7.21%.
For `Cc1[nH]nc2c1C(c1cccc(OC(=O)N3CCOCC3)c1)C(C#N)=C(N)O2` (stereo not drawn), the “hERG current change (%, negative = inhibition) at 10uM” value was 1.46%.
For `CCN(C(=O)CSc1ccc2ccccc2c1)C1CCS(=O)(=O)C1` (stereo not drawn), the “hERG current change (%, negative = inhibition) at 10uM” value was -19.5%.
`CC(=O)c1ccc(S(=O)(=O)NCc2cccnc2)cc1` was tested, and the “hERG current change (%, negative = inhibition) at 10uM” value was 16%.
`COCc1cc(/C=N\NC(=O)c2ccc(Cl)cc2)ccc1OC` was tested, and the “hERG current change (%, negative = inhibition) at 10uM” value was -3.44%.
With `Cc1cc(NC(=O)CCn2c(=O)sc3ccccc32)no1` the “hERG current change (%, negative = inhibition) at 10uM” value was -7.55%.
In the case of `c1nc2sc3c(c2c2nnnn12)CCC3`, the “hERG current change (%, negative = inhibition) at 10uM” value is reported as 7.51%.
For `CC1=C(C(=O)OCC2CCCO2)C(c2coc3ccccc3c2=O)C2=C(CC(C)(C)CC2=O)N1` (stereo not drawn), the “hERG current change (%, negative = inhibition) at 10uM” value was -7.17%.
In the case of `Cc1onc(-c2ccc(Cl)cc2)c1-c1ccnn1S(=O)(=O)c1ccc(Cl)cc1`, the “hERG current change (%, negative = inhibition) at 10uM” value is reported as 4.81%.
`NS(=O)(=O)c1ccc(Oc2ccc(S(N)(=O)=O)cc2)cc1` was tested, and the “hERG current change (%, negative = inhibition) at 10uM” value was 0.75%.
With `COc1ccc(N=c2sc3ccccc3n2C)cc1` the “hERG current change (%, negative = inhibition) at 10uM” value was 8.47%.
In the case of `CC(N=C(NC#N)Nc1ccncc1)C(C)(C)C.O` (stereo not drawn), the “hERG current change (%, negative = inhibition) at 10uM” value is reported as 16.2%.
`Cc1ccc(S(=O)(=O)N2CCN(CC(=O)Nc3ccc(N4CCOCC4)cc3)CC2)cc1C` was tested, and the “hERG current change (%, negative = inhibition) at 10uM” value was -11.5%.
In the case of `CCn1ncc(Br)c1C(=O)Nc1ccc(Cl)cn1`, the “hERG current change (%, negative = inhibition) at 10uM” value is reported as -7.49%.
`N#Cc1ccc(Oc2cc(C(F)(F)F)nc(-c3ccccn3)n2)cc1` was tested, and the “hERG current change (%, negative = inhibition) at 10uM” value was 5.26%.
In the case of `COc1ccccc1C1Nc2ccccc2NC2=C1C(=O)CC(C)(C)C2` (stereo not drawn), the “hERG current change (%, negative = inhibition) at 10uM” value is reported as 7.64%.
With `CCC(=O)NNC(=O)CSc1nnc(-c2ccccc2)c(-c2ccccc2)n1` the “hERG current change (%, negative = inhibition) at 10uM” value was 3.68%.
`CCOC(=O)C(Cc1ccc(OC)c([N+](=O)[O-])c1)NC(=O)CCC(=O)Nc1ccc(C)cc1` (stereo not drawn) was tested, and the “hERG current change (%, negative = inhibition) at 10uM” value was -26.2%.
`Cc1ccc(Cl)c(NC(=O)CCl)c1Cl` was tested, and the “hERG current change (%, negative = inhibition) at 10uM” value was -13.4%.
